Assay results taken from the supplement of paper PMC11181314.
This is one part of the list. Single values of this set are uncertain.

Test system: U2OS
Test: Cell Painting induction (percent of morphological features significantly changed vs DMSO); higher = stronger morphological change
Settings: 10 µM, 20 h
Description: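 Cell Painting assay in U2OS cells: compounds at 10 µM for 20 h, six dyes, 579 robust CellProfiler features as Z-scores vs DMSO median (MAD). Induction is the % of significantly changed features (active if ≥5%); relative cell count is in % of DMSO. The primary run holds DCM compounds preselected for induction ≥10%; the confirmation repeat defines active compounds (370 of 549). Replicate agreement is low, attributed to precipitation.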

[1] = run: primary screen (compounds selected for induction >=10%)
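Also: stains mark DNA, RNA and nucleoli, ER, actin, Golgi, plasma membrane and mitochondria, read by high-content imaging, with DMSO controls at matching solvent concentration.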

| Compound | Cell Painting induction (run: confirmation repeat) | Cell Painting induction [1] [%] |
| --- | --- | --- |
| Cc1ccc(C(=O)NNC(=O)C2CCN(C(=O)OC(C)(C)C)CC2)cc1 | inactive: 4.8% | 10.2 |
| CCC1CCCCN1CCCNC(=O)c1csc2c1CCCCC2 (stereo not drawn) | active: 6.4% | 14.3 |
| CCOc1ccc(N(Cc2cc3cc(C)ccc3nc2O)S(=O)(=O)c2ccccc2)cc1 | active: 18.5% | 29.5 |
| O=C(Cn1nc(-c2ccccc2)ccc1=O)NCCN1CCN(c2cccc(Cl)c2)CC1 | active: 47.2% | 42 |
| COc1ccc(NC2=CC(c3ccc(OC)c(OC)c3)N(c3ccc(OC)cc3)C2=O)cc1 (stereo not drawn) | inactive: 1.6% | 12.1 |
| CCOC(=O)c1cn2nc(-c3ccc(OCC)cc3)cc2nc1C1CCN(C(=O)OC(C)(C)C)CC1 | inactive: 2.1% | 30.1 |
| COc1ccccc1CNC(=O)c1oc2ccc(S(=O)(=O)N3CCOCC3)cc2c1C | active: 26.9% | 14.9 |
| CCOC(=O)c1ccc(NC(=O)C2CCN(S(=O)(=O)c3ccc4c(c3)CC(C)N4C(C)=O)CC2)cc1 (stereo not drawn) | active: 15% | 39.7 |
| COc1cccc(-c2cc(C(=O)Nc3cccnc3)c3ccccc3n2)c1 | active: 10.7% | 20 |
| COc1ccc(-c2c(C)nn3c(N4CCC5(CC4)OCCO5)cc(C)nc23)cc1OC | active: 13.1% | 11.2 |
| O=C(CCS(=O)(=O)c1cccs1)Nc1ccc(C(=O)NC2CCN(Cc3ccccc3)CC2)cc1 | active: 12.8% | 12.3 |
| Cc1ccccc1CN1CCC(CNC(=O)Nc2ccc(F)cc2F)CC1 | active: 17.3% | 24.5 |
| Cc1cc2c3c([nH]c2cc1S(=O)(=O)NCc1ccc(CN2CCCCCC2)o1)CC(C)(C)CC3=O | active: 33.3% | 43.5 |
| COc1ccc(C2/C(=C(\O)OC(C)C)C(C)=Nc3nc4ccccc4n32)cc1 (stereo not drawn) | inactive: 3.5% | 23.8 |
| Cc1ccc(C)c(N2CCN(CCCNC(=O)CCn3c(=O)c4cccn4c4cccnc43)CC2)c1 | active: 29% | 24.7 |
| Cc1c2cnn(-c3ccccc3)c(=O)c2c(C)n1CCCC(=O)N1CCN(C2CCCCC2)CC1 | active: 24.5% | 32.3 |
| Cc1cccc(N2CCN(C(=O)c3ccc(CNc4c(N5CCC(C)CC5)c(=O)c4=O)cc3)CC2)c1C | inactive: 0.2% | 17.3 |

| Compound | Cell Painting induction (run: confirmation repeat) | Cell Painting induction [1] [%] |
| --- | --- | --- |
| COc1ccc2nc(C)cc(Nc3ccccc3OC)c2c1 | active: 25.6% | 23.1 |
| O=C(c1noc2c1CCCCC2)N1CCN(C(c2ccccc2)c2ccccc2)CC1 | inactive: 0% | 15.5 |
| Cc1cccc(N2CCN(C(=O)CCCn3c(=O)c4cccn4c4cccnc43)CC2)c1C | active: 26.3% | 25.9 |
| COc1ccc(NC(=O)c2cc(S(=O)(=O)N3CCCC3)cn2C)cc1Cl | active: 41.6% | 43 |
| CC(=O)c1ccc(N2CCN(S(=O)(=O)c3cc(-c4cc(C)no4)ccc3C(C)C)CC2)cc1 | active: 49.2% | 28.8 |
| COc1cccc(OC)c1C(=O)Nc1ccc2c(c1)CCCN2S(=O)(=O)c1ccc(C)cc1 | active: 29.5% | 24 |
| CCCCCn1c(=O)[nH]c2cc(C(=O)NCCN3CCCCC3C)ccc2c1=O (stereo not drawn) | active: 25.6% | 48 |
| Cc1nn(C)c(C)c1S(=O)(=O)N(CC(=O)NCCCN1CCC(C)CC1)c1ccc(C(C)C)cc1 | active: 30.9% | 25.7 |
| CCOC(=O)C1C(c2ccccc2)C(=C(\O)OCC)/C(=N/c2ccc(Br)cc2)CC1(C)O (stereo not drawn) | inactive: 2.8% | 11.9 |
| COc1ccc(NC(=O)Cn2cnc3c(nnn3-c3ccc(C)cc3)c2=O)cc1 | inactive: 0.3% | 13.6 |
| COc1ccc(-c2noc(N3CCC(C(=O)NCCCN4CCC(C)CC4)CC3)n2)cc1 | inactive: 2.2% | 25.9 |
| CCCN(CCC)CCCNC(=O)c1ccc2c(c1)N(CC)C(=O)c1ccccc1S2=O (stereo not drawn) | inactive: 2.2% | 13.8 |
| COc1ccccc1S(=O)(=O)Cc1ccc(C(=O)NCCCN2CCN(c3ccc(F)cc3)CC2)o1 | active: 36.1% | 46.5 |
| Cc1ccc(S(=O)(=O)NCC(c2ccccc2)N2CCCCC2)cc1 (stereo not drawn) | inactive: 2.2% | 14.5 |
| Cc1ccccc1S(=O)(=O)Cc1ccc(C(=O)NCCN(Cc2ccccc2)C(C)C)o1 | inactive: 0.3% | 10.7 |
| COC(=O)C1=C(CSCc2ccccc2)NC(=O)NC1c1cc(C)ccc1C (stereo not drawn) | active: 6.9% | 11.6 |
| CCOc1ccc(S(=O)(=O)NCC2CCCO2)cc1NC(=O)c1ccccc1F (stereo not drawn) | inactive: 2.8% | 22.1 |
